Laboratory results as given in the RNAGym collection of RNA variant scans (doi:10.7554/elife.90254).
The source gives no read counts; variants with many changes may rest on few reads.

B1: OR4K15 (parent)
chain: GUUAACGGUCAUAGGCCAUGGAAACUAGGAGCACCAUUUCGCUGCCAGUGAAGAAAUGAACAAAGAAAAUCUGGGCCAGGCAGGCAUCAAAAGAAAUAGUCUUGCGCUCAACCAGAAAGUCUGUAAUCAUUUUAAGGGUA

Variants of: B1
Test: self-cleavage, relative activity (ratio to wild type); higher = more cleavage; in vitro, sequencing; the parent is a self-cleaving ribozyme

| Variant | self-cleavage |
| --- | --- |
| GUUAACGGUCAUAGGCCAUGGAAACUAGGAGCACCAUUUCGCCGCCAGUGAAGAAAUGAACGAAGAAAAUCUGGGCCAGGCAGGCAUCAAAAGGAAUAGUCUUGCGCUCAACCAGAAAGUCUGUAAUCAUUUUAAGGGUA [U43C A62G A94G] | 1.8 |
| GUUAACGGUCAUAGGCCAUGGAAACUAGGAGCACCAUUUCGCCGCCAGUGAAGAAAUGAGCAAGGAAAAUCUGGGCCAGGCAGGCAUCAAAAGAAAUAAUCUUGCGCUCAACCAGAAAGUCUGUAAUCAUUUUAAGGGUA [U43C A60G A64G G99A] | 0.8 |
| GUUAACGGUCAUAGGCCAUGGAAACUAGGAGCACCAUUUCGCCGCCAGUGGAGAAAUGAACAAAGAAAAUCUGGGCCAGGCAGGCAUCAAAAGAAAUAGUCUUGCGCUCAACCAGAAAGUCCGUAAUCAUUUUAAGGGUA [U43C A51G U122C] | 0.6 |
| GUUAACGGUCAUAGGCCAUGGAAACUAGGAGCACCAUUUCGCCGCCAGUGAAGGAAUGAACAAAGAAGAUCUGGGCCAGGCAGGCAUCAAAAGAAAUAGUCUUGCGCUCAACCAGAAAGUCUGUAAUCAUUUUAAGGGUA [U43C A54G A68G] | 0.89 |
| GUUAACGGUCAUAGGCCAUGGAAACUAGGAGCACCAUUUCGCCGCCGGUGAAGAAAUGAACAAAGAAAAUCUGGGCCAGGCUGGCAUCAAAAGAAAUAGUCUUGCGCUCAACCAGAAAGUCUGUAAUCAUUUUAAGGGUA [U43C A47G A82U] | 0.17 |
| GUUAACGGUCAUAGGCCAUGGAAACUAGGAGCACCAUUUCGCCGCCAGUGAGGAAAUGAACAAAGAGAAUCUGGGCCUGGCAGGCAUCAAAAGUAAUAGUCUUGCGCUCAACCAGAAAGUCUGUAAUCAUUUUAAGGGUA [U43C A52G A67G A78U A94U] | 0.27 |
| GUUAACGGUCAUAGGCCAUGGAAACUAGGAGCACCAUUUCGCCGCCAGUGAGGAAAUGAACAAAGAAAAUCUGGGCCAGGCAGGCAUCAAAAGAAAUAGUCUUGCGCUCAACUAGAAAGUCUGUGAUCACUUUAAGGGUA [U43C A52G C113U A125G U130C] | 0 |
| GUUAACGGUCAUAGGCCAUGGAAACUAGGAGCACCAUUUCGCAGCCAGUGAAGAAAUGAACAAAGAAAAUCUGGGCCAGACAGGCACCAAAAGAAAUAGUCUUGCGCUCAACCAGAAAGUCUGUAAUCAUUUUAAGGGUA [U43A G80A U87C] | 0.26 |
| GUUAACGGUCAUAGGCCAUGGAAACUAGGAGCACCAUUUCGCCGCCGGUGAAGAAAUGAACAAAGAAAACCUGGGCCAGGCAGGCAUCAAAAGAAAUAGCCUUGCGCUCAACCAGAAAGUCUGUAAUCACUUUAGGGGUA [U43C A47G U70C U100C U130C A135G] | 1.17 |
| GUUAACGGUCAUAGGCCAUGGAAACUAGGAGCACCAUUUCGCCGCCAGUGGAGAAAUGAACAUAGAAAAUCUGGGCCAGGCAGGCAUCAAAAGAAAUAGUCUUGCGCUCAACCAGGAAGCCUGUAAUCAUUUUAAGGGUA [U43C A51G A63U A116G U120C] | 0.32 |
| GUUAACGGUCAUAGGCCAUGGAAACUAGGAGCACCAUUUCGCAGCCAGUGAAGAAAUGAACAAAGAAAAUCUGGGCCAGGCAGGCAUCAAAAGAAAUAGUCUCGCGCUCUACCAGAAAGUCUGUAAUCAUUUUAAGGGUA [U43A U103C A110U] | 0.96 |
| GUUAACGGUCAUAGGCCAUGGAAACUAGGAGCACCAUUUCGCCGCCAGUGAAGAAGUGAACAAAGAAAAUCUGGGCCAGGCAGGCACCAGAGGAAAUAGUCUUGCGCUCAACCAGAAAGUCUGUGAUCAUUUUAAGGGUA [U43C A56G U87C A90G A92G A125G] | 0.02 |
| GUUAACGGUCAUAGGCCAUGGAAACUAGGAGCACCAUUUCGCCGCCAGUGAAGAAAUGGACAAAGAUAAUCUGGGCCAGGCAGGCAUCAAAAGAAAUAGUCUUGCGCUCAACCAGAAAGUCUGUAAUCAUUUUAAGGGUA [U43C A59G A67U] | 2.17 |
| GUUAACGGUCAUAGGCCAUGGAAACUAGGAGCACCAUUUCGCCGCCAGUGAAGAGAUGAACAUAGAAAAUCUGGGCCAGGCAGGCAUCAAAAGAAAUAGUCUUGCGCUCAACCAGAAAGUCUGCAAUCAUUUUAAGGGUA [U43C A55G A63U U124C] | 1.02 |
| GUUAACGGUCAUAGGCCAUGGAAACUAGGAGCACCAUUUCGCCGCCAGUGAAGAAAUGAGCAAAGAAAAUCUGGGUCAGGCAGGCAUCAAAAGAAAUAGUCUUGCGCUCAACCAGAAAGUCUGUAAUCAUUUUAGGGGUA [U43C A60G C76U A135G] | 0.19 |
| GUUAACGGUCAUAGGCCAUGGAAACUAGGAGCACCAUUUCGCCGCCUGUGAGGAAAUGAACAAAGAAAUUCUGGGCCAGGCAGGCAUCAAAAGAAAUAGCCUUGCGCUCAACCAGAAAGUCUGUAAUCAUUUUAAGGGUA [U43C A47U A52G A69U U100C] | 1.33 |
| GUUAACGGUCAUAGGCCAUGGAAACUAGGAGCACCAUUUCGCCGCCAGUGGAGAAGUGAACAAAGAAAAUCUGGGCCAGGCAGGCAUCAAAAGAAAUAGUCUUGCGCUCAACCAGAAAGCCUGUAAUCAUUUUAAGGGUA [U43C A51G A56G U120C] | 0.73 |
| GUUAACGGUCAUAGGCCAUGGAAACUAGGAGCACCAUUUCGCCGCCAGUGGAGAAAAGAACAAAGAAAAUCUGGGCCAGGCAGGCAUCAAAAGAAAUAGUCUUGCGCUCAACCAGAAAGUCCGUAGUCAUUUUAAGGGUA [U43C A51G U57A U122C A126G] | 1.19 |
| GUUAACGGUCAUAGGCCAUGGAAACUAGGAGCACCAUUUCGCAGCCAGAGAAGAAAUGAACAAAGAAGAUCUGGGCCAGGCAGGCAUCAAAAGGAAUAGUCUCGCGCUCAACCUGAAAGUCUGUAAUCAUUUUAAGGGUA [U43A U49A A68G A94G U103C A114U] | 0.09 |
| GUUAACGGUCAUAGGCCAUGGAAACUAGGAGCACCAUUUCGCCGCCAGUGUAGAAAUGAACAAAGAAAAUCUGGGCCAGGCAGGCAUCAAAAGAAAUAGCCAUGCGCUCAACCAGAAAGUCUGUAAUCAUUUUAAGGGUA [U43C A51U U100C U102A] | 1.82 |
| GUUAACGGUCAUAGGCCAUGGAAACUAGGAGCACCAUUUCGCCGCCAGUGAAGAAGUGAACAAAGAAAAUCUGGGCCAGGCAGGCAUCAAAAGAAAUAGUCCUGCGCUCAACCAGAAGGUCUGUAAUCAUUUUAAGGGUA [U43C A56G U102C A118G] | 1.28 |

| Variant | self-cleavage |
| --- | --- |
| GUUAACGGUCAUAGGCCAUGGAAACUAGGAGCACCAUUUCGCAGCCAGUGAAGAAAAGAACAAAGAAAAUCUGGGCCAGGCAGGCAACAAAAGAAAUUGUCCUGCGCACAACCAGAAAGCCUGUAAUCAUUUUAAGGGUA [U43A U57A U87A A98U U102C U108A U120C] | 0 |
| GUUAACGGUCAUAGGCCAUGGAAACUAGGAGCACCAUUUCGCAGCCAGUGAAGAAAUGAACAAAGAAAAUCUGGGCCAGGCAGGCACCAAAAGAAAUAGUCUUGCGCUCAACCAGAAGGUCUGUAAUCGUUUUAAGGGUA [U43A U87C A118G A129G] | 0.03 |
| GUUAACGGUCAUAGGCCAUGGAAACUAGGAGCACCAUUUCGCAGCCAGAGAAGAAAUGAACAAAGAAAACCUGGGCCAGGCAGGCAUCAAAAGAAAUAGUCUUGCGCUCAACCAGAAAGUCUGUAAUCAUUUUAAGGGUA [U43A U49A U70C] | 1.09 |
| GUUAACGGUCAUAGGCCAUGGAAACUAGGAGCACCAUUUCGCCGCCAGUGAAGAAAUGGACAAAGAAAAUCUGGGCCAGGCAGGCAUCGAAAGAAAUAGUCUUGCGCUCAACCAGAAAGUCUGUAAUCAUUUUAAGGGUA [U43C A59G A89G] | 1.85 |
| GUUAACGGUCAUAGGCCAUGGAAACUAGGAGCACCAUUUCGCCGCCAGUGAAGAAGUGAACAAAGAAAAUCUGGGCCGGGCAGGCAUCAAAAGAAAUAGUCUUGCGCUCAACCAGAAAGUCUGUAAUCAUUUUAAGGGUA [U43C A56G A78G] | 0.32 |
| GUUAACGGUCAUAGGCCAUGGAAACUAGGAGCACCAUUUCGCCGCCAGUGAAGAAAUGAGCAGAGAAGAUCUGGGCCAGGCAGGCAUCAAAAGAAAUAGUCUUGCGCUCAACCAGAAAGUCUGUAAUCAUUUUAAGGGUA [U43C A60G A63G A68G] | 1.33 |
| GUUAACGGUCAUAGGCCAUGGAAACUAGGAGCACCAUUUCGCCGCCAGUGAAGAGAUGAACAAAGAAAAUCUGGGCCAGGCAGGCAUCAAAAGAAAUAGCCUUGCGCCCAACCAGAAGGUCUGUAAUCAUUUUAAGGGUA [U43C A55G U100C U108C A118G] | 0 |
| GUUAACGGUCAUAGGCCAUGGAAACUAGGAGCACCAUUUCGCCGCCGGUGAGGAAAUGAACAAAGAAAAUCUGGGCCAGGCAGGCAUCAAAAGAAGUAGUCUUGCGCUCAACCAGAAAGUCUGUAAUCAUUUUAAGGGUA [U43C A47G A52G A96G] | 0.53 |
| GUUAACGGUCAUAGGCCAUGGAAACUAGGAGCACCAUUUCGCCGCCAGUGAAGAGAUGAACAAAGAAAAUCUGGGCCAGGCAGGCAUCAAAAGAAAUAGUCUUGCGCUCUACCAGAAAGUCUGUAGUCAUUUUAAGGGUA [U43C A55G A110U A126G] | 0.86 |
| GUUAACGGUCAUAGGCCAUGGAAACUAGGAGCACCAUUUCGCCGCCAGUGAAGAAAUGGACAAAGUAAAUCUGGGCCAGGCAGGCACCAAAGGAAAUAGUCUUGCGCUCAACCAGAAAGUCUGUAAUCAUUUUAAGGGUA [U43C A59G A66U U87C A92G] | 0.89 |
| GUUAACGGUCAUAGGCCAUGGAAACUAGGAGCACCAUUUCGCAGCCAGUGAAGAAAUGAACAAAGAAAAUCUGGGCCAGGCAGGCAUCAAAAGAAAUAGUCUUGCGCUCAACCAGAAAGUCUGCAAUCACUUUAAGGGUA [U43A U124C U130C] | 0.56 |
| GUUAACGGUCAUAGGCCAUGGAAACUAGGAGCACCAUUUCGCCGCCAGUGAGGAAGUGAACAAAGAAAAUCUGGGCCAGGCAGGCAUCAAAAGAAAUAGUCUUGCGCUCAACCAGAAAGUCUGUAAUCAUUUUAAGGGUA [U43C A52G A56G] | 0.81 |
| GUUAACGGUCAUAGGCCAUGGAAACUAGGAGCACCAUUUCGCCGCCAGUGGAGAAAUGAACUAAGAAAAUCUGGGCCAGGCAGGCAUCAAAAGAAAUAGUCUUGCGCUCAACCAGAAAGUCUGUAAUCACUUUAAGGGUA [U43C A51G A62U U130C] | 0.41 |
| GUUAACGGUCAUAGGCCAUGGAAACUAGGAGCACCAUUUCGCCGCCAGUGAAGAAAUGGUCAGAGAAAAUCUGGGCCAGGCAGGCAUCAAAAGAAAUAGUCUUGCGCUCAACCAGAAAGUCUGUAAUCAUUUUAAGGGUA [U43C A59G A60U A63G] | 2.29 |
| GUUAACGGUCAUAGGCCAUGGAAACUAGGAGCACCAUUUCGCAGCCAGAGAAGAAAUGAACAAAGAAAAUCUGGGCCAGGCAGGCAUCAAAAGAAAUAGACUUGCGCUCAACCAGAAAGUCUGUAAUCAUUUUAAGGGUA [U43A U49A U100A] | 0.71 |
| GUUAACGGUCAUAGGCCAUGGAAACUAGGAGCACCAUUUCGCCGCCUGUGAAGAAAUGAACAAAGAAAAUCUGGGCCAGGCAGGCAUCAAGAGAAAUAGUCUUGCGCCCAACCAGAAAGUCUGUAAUCAUUUUAGGGGUA [U43C A47U A91G U108C A135G] | 0 |
| GUUAACGGUCAUAGGCCAUGGAAACUAGGAGCACCAUUUCGCAGCCAGUGAAGAAAUGAACAAAGAAAAUCUGGGCCAGGCAGCCUUCAAAAGAAGUAGUCUUGCGCUCAACCAGAAAGUCUGUAAUCAUUUUAAGGGUA [U43A G84C A86U A96G] | 0.93 |
| GUUAACGGUCAUAGGCCAUGGAAACUAGGAGCACCAUUUCGCCGCCAGUGAAGAAGUGAACAAAGAAAAUCUGGGCCAGGCAGGCAUCAAAAGAAAUAGUCUUGCUCUCAACCAGAAAGUCUGUAAUCAUUUUAAGGGUA [U43C A56G G106U] | 0.03 |
| GUUAACGGUCAUAGGCCAUGGAAACUAGGAGCACCAUUUCGCCGCCAGUGAAGUAAUGAACAAAGAAAAUCUGGGCCAGGCAGGCAUCAAAAGAAAUAGUCUUGCGCUCAACCAGAAAGUCUGCAAUCAUUUUAAGGGUA [U43C A54U U124C] | 0.94 |
| GUUAACGGUCAUAGGCCAUGGAAACUAGGAGCACCAUUUCGCAGCCAGCGAAGAAAUGAACAAAGAAAAUCUGGGCCAGGCAGGCAUCAAAAGAAAUAGCCUUGCGCUCAACCAGAAAGUCUGUAAUCAUUUUAAGGGUA [U43A U49C U100C] | 1.94 |
